# In the supplement of paper PMC8728848:
# This is one part of the list.
# What was measured:
# Assay in all cases: glycan array binding signal (z-score within array); higher = stronger binding
# Conditions in all cases: glycan notation: IUPAC condensed, linker removed
# Fuc(a1-2)Gal = target: Fuc(a1-2)Gal
# In short: (§1)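 Glycan array data came from 3228 arrays in the Consortium for Functional Glycomics database, and only arrays with an available protein sequence were kept. Glycan names were put into IUPAC-condensed notation, and columns mapping to the same glycan were averaged. The binding signal is a within-array Z-score, averaged across arrays of one protein sequence run at different concentrations or buffers and across linkers. A negative Z-score can be read as non-binding.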
# Fuc(a1-2)Gal(b1-3)GalNAc = target: Fuc(a1-2)Gal(b1-3)GalNAc
# In short: as §1
# [1] = target: Fuc(a1-2)Gal(b1-3)GalNAc(a1-3)[Fuc(a1-2)]Gal(b1-4)Glc
# In short: as §1
# [2] = target: Fuc(a1-2)Gal(b1-3)GalNAc(a1-3)[Fuc(a1-2)]Gal(b1-4)GlcNAc
# In short: as §1
# [3] = target: Fuc(a1-2)Gal(b1-3)GalNAc(b1-3)Gal
# In short: as §1
# [4] = target: Fuc(a1-2)Gal(b1-3)GalNAc(b1-3)Gal(a1-4)Gal(b1-4)Glc
# In short: as §1
# [5] = target: Fuc(a1-2)Gal(b1-3)GalNAc(b1-4)[Neu5Ac(a2-3)]Gal(b1-4)Glc
# In short: as §1
# Fuc(a1-2)Gal(b1-3)GlcNAc = target: Fuc(a1-2)Gal(b1-3)GlcNAc
# In short: as §1
# [6] = target: Fuc(a1-2)Gal(b1-3)GlcNAc(b1-2)Man(a1-3)[Fuc(a1-2)Gal(b1-3)GlcNAc(b1-2)Man(a1-6)]Man(b1-4)GlcNAc(b1-4)GlcNAc
# In short: as §1
# [7] = target: Fuc(a1-2)Gal(b1-3)GlcNAc(b1-2)Man(a1-3)[Fuc(a1-2)Gal(b1-3)GlcNAc(b1-2)Man(a1-6)]Man(b1-4)GlcNAc(b1-4)[Fuc(a1-6)]GlcNAc
# In short: as §1
# [8] = target: Fuc(a1-2)Gal(b1-3)GlcNAc(b1-3)Gal(b1-4)Glc
# In short: as §1
# [9] = target: Fuc(a1-2)Gal(b1-3)GlcNAc(b1-3)GalNAc
# In short: as §1
# [10] = target: Fuc(a1-2)Gal(b1-3)GlcNAc(b1-3)[Fuc(a1-2)Gal(b1-3)GlcNAc(b1-6)]GalNAc
# In short: as §1
# [11] = target: Fuc(a1-2)Gal(b1-3)GlcNAc(b1-3)[Gal(b1-4)GlcNAc(b1-6)]Gal(b1-4)Glc
# In short: as §1
# [12] = target: Fuc(a1-2)Gal(b1-3)GlcNAc(b1-3)[Neu5Ac(a2-6)Gal(b1-4)GlcNAc(b1-6)]Gal(b1-4)Glc
# In short: as §1
# [13] = target: Fuc(a1-2)Gal(b1-3)GlcNAc6S
# In short: as §1
# [14] = target: Fuc(a1-2)Gal(b1-3)[Fuc(a1-4)]GlcNAc
# In short: as §1
# [15] = target: Fuc(a1-2)Gal(b1-3)[Fuc(a1-4)]GlcNAc(b1-2)Man(a1-3)[Fuc(a1-2)Gal(b1-3)[Fuc(a1-4)]GlcNAc(b1-2)Man(a1-3)]Man(b1-4)GlcNAc(b1-4)GlcNAc
# In short: as §1
# [16] = target: Fuc(a1-2)Gal(b1-3)[Fuc(a1-4)]GlcNAc(b1-2)Man(a1-3)[Fuc(a1-2)Gal(b1-3)[Fuc(a1-4)]GlcNAc(b1-2)Man(a1-6)]Man(b1-4)GlcNAc(b1-4)[Fuc(a1-6)]GlcNAc(b1-4)[Fuc(a1-6)]GlcNAc
# In short: as §1
# [17] = target: Fuc(a1-2)Gal(b1-3)[Fuc(a1-4)]GlcNAc(b1-3)[Fuc(a1-3)[Gal(b1-4)]GlcNAc(b1-6)]Gal(b1-4)Glc
# In short: as §1
# [18] = target: Fuc(a1-2)Gal(b1-3)[Fuc(a1-4)]GlcNAc(b1-3)[Gal(b1-4)GlcNAc(b1-6)]Gal(b1-4)Glc
# In short: as §1
# [19] = target: Fuc(a1-2)Gal(b1-4)Fuc(a1-3)]GlcNAc(b1-2)Man(a1-3)[Fuc(a1-2)Gal(b1-4)[Fuc(a1-3)]GlcNAc(b1-2)Man(a1-6)]Man(b1-4)GlcNAc(b1-4)GlcNAc
# In short: as §1
# Fuc(a1-2)Gal(b1-4)Glc = target: Fuc(a1-2)Gal(b1-4)Glc
# In short: as §1
# Fuc(a1-2)Gal(b1-4)Glc6S = target: Fuc(a1-2)Gal(b1-4)Glc6S
# In short: as §1
# Fuc(a1-2)Gal(b1-4)GlcNAc = target: Fuc(a1-2)Gal(b1-4)GlcNAc
# In short: as §1
# [20] = target: Fuc(a1-2)Gal(b1-4)GlcNAc(b1-2)Man
# In short: as §1
# [21] = target: Fuc(a1-2)Gal(b1-4)GlcNAc(b1-2)Man(a1-3)[Fuc(a1-2)Gal(b1-4)GlcNAc(b1-2)Man(a1-6)]Man(b1-4)GlcNAc(b1-4)GlcNAc
# In short: as §1
# [22] = target: Fuc(a1-2)Gal(b1-4)GlcNAc(b1-2)Man(a1-3)[Fuc(a1-2)Gal(b1-4)GlcNAc(b1-2)Man(a1-6)]Man(b1-4)GlcNAc(b1-4)[Fuc(a1-6)]GlcNAc
# In short: as §1
# [23] = target: Fuc(a1-2)Gal(b1-4)GlcNAc(b1-2)[Fuc(a1-2)Gal(b1-4)GlcNAc(b1-4)]Man(a1-3)[Fuc(a1-2)Gal(b1-4)GlcNAc(b1-2)Man(a1-6)]Man(b1-4)GlcNAc(b1-4)GlcNAc
# In short: as §1
# [24] = target: Fuc(a1-2)Gal(b1-4)GlcNAc(b1-3)Gal(b1-4)GlcNAc
# In short: as §1
binder,measurement,setting,value
"LgFlo1 (Saccharomyces pastorianus), B3IUA8 (protein) SGSTQACLPVGSRKNGMNVNFYKYSLQDSTTYSDPQYMAYKYSDTKKLGSVSGQTHLSIYYGPNTAFWNTASWSSDLFGFYTTPTNVTVEMTGYFLPPQTGSYTFKFATVDDSAILSVGGSIAFECCAQEQPPITSTDFTINGIKPWDAATPTDIKGSTYMYAGYYYPIKIVYSNAKALARLPVSVVLPDGTEVNDDFEGYVYSFDDDLSQSNCTIPDPSKHTTS",glycan array binding signal (z-score),Fuc(a1-2)Gal,-0.217
same,glycan array binding signal (z-score),Fuc(a1-2)Gal(b1-3)GalNAc,-0.337
same,glycan array binding signal (z-score),[1],0.192
same,glycan array binding signal (z-score),[2],-0.253
same,glycan array binding signal (z-score),[3],-0.431
same,glycan array binding signal (z-score),[4],-0.346
same,glycan array binding signal (z-score),[5],-0.164
same,glycan array binding signal (z-score),Fuc(a1-2)Gal(b1-3)GlcNAc,-0.247
same,glycan array binding signal (z-score),[6],2.1
same,glycan array binding signal (z-score),[7],3.52
same,glycan array binding signal (z-score),[8],0.983
same,glycan array binding signal (z-score),[9],-0.113
same,glycan array binding signal (z-score),[10],-0.108
same,glycan array binding signal (z-score),[11],0.26
same,glycan array binding signal (z-score),[12],0.445
same,glycan array binding signal (z-score),[13],-0.336
same,glycan array binding signal (z-score),[14],-0.312
same,glycan array binding signal (z-score),[15],0.923
same,glycan array binding signal (z-score),[16],0.604
same,glycan array binding signal (z-score),[17],-0.235
same,glycan array binding signal (z-score),[18],-0.051
same,glycan array binding signal (z-score),[19],4.98
same,glycan array binding signal (z-score),Fuc(a1-2)Gal(b1-4)Glc,-0.137
same,glycan array binding signal (z-score),Fuc(a1-2)Gal(b1-4)Glc6S,-0.286
same,glycan array binding signal (z-score),Fuc(a1-2)Gal(b1-4)GlcNAc,-0.338
same,glycan array binding signal (z-score),[20],-0.253
same,glycan array binding signal (z-score),[21],0.925
same,glycan array binding signal (z-score),[22],0.313
same,glycan array binding signal (z-score),[23],-0.119
same,glycan array binding signal (z-score),[24],-0.363
